# Test results from the supplement of paper PMC4604168 (melanoma cell lines).
# This is one part of the list. Single values are uncertain, as repeats are few or missing.
# What was measured:
# Experiment in all cases: cell count relative to DMSO control; melanoma cells; higher = more viable cells
# Details in all cases: library dose: standard library concentration; 72 h
# G361 = system: G361
# IPC-298 = system: IPC-298
# IST-MEL1 = system: IST-MEL1
# LB2518-MEL = system: LB2518-MEL
# LOXIMVI = system: LOXIMVI
# MEL-HO = system: MEL-HO
# MZ2-MEL = system: MZ2-MEL
# MeWo = system: MeWo
# RPMI7951 = system: RPMI7951
# RVH-421 = system: RVH-421
# SkMel28 = system: SkMel28
# SkMel2 = system: SkMel2
# SkMel30 = system: SkMel30
# SkMel5 = system: SkMel5
# UACC257 = system: UACC257
# UACC62 = system: UACC62
# WM115 = system: WM115
# WM1716 = system: WM1716
# WM3526 = system: WM3526
# WM1745 = system: WM1745
# 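Further: cells treated in 1,536-well plates, then fixed and DAPI-stained, with nuclei counted from automated high-throughput microscope images.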
SMILES,cell count (G361) [%],cell count (IPC-298) [%],cell count (IST-MEL1) [%],cell count (LB2518-MEL) [%],cell count (LOXIMVI) [%],cell count (MEL-HO) [%],cell count (MZ2-MEL) [%],cell count (MeWo) [%],cell count (RPMI7951) [%],cell count (RVH-421) [%],cell count (SkMel28) [%],cell count (SkMel2) [%],cell count (SkMel30) [%],cell count (SkMel5) [%],cell count (UACC257) [%],cell count (UACC62) [%],cell count (WM115) [%],cell count (WM1716) [%],cell count (WM3526) [%],cell count (WM1745) [%]
"Clc1ccc(Nc2nnc(Cc3ccncc3)c3ccccc23)cc1 [vatalanib] + CC(C)CCN1c2nc(Nc3cc(F)c(O)c(F)c3)ncc2N(C)C(=O)C1C [BID1870] (first compound 10 µM, partner dose 1 µM)",59.9,65.1,79.9,92.4,64.7,57.1,83.5,65.5,90,68.9,65.6,69.3,82.9,69.2,81.3,95.5,89.9,80.8,63.3,
"Clc1ccc(Nc2nnc(Cc3ccncc3)c3ccccc23)cc1 [vatalanib] + COc1ccc(-c2ccc3c(N4CCOCC4)nc(N4C[C@@H](C)O[C@@H](C)C4)nc3n2)cc1CO [KU0063794] (first compound 10 µM, partner dose 0.1 µM)",65.8,63.2,86.9,48,81.8,58,54.5,62.1,81.3,90.2,72.8,76.8,96.4,58.1,74.3,92.3,85.7,78.5,78.2,
"OCc1c[nH]c2ccccc12 [Indole-3-carbinol] + O=S(=O)(c1ccccc1)N(CC(F)(F)F)c1ccc(C(O)(C(F)(F)F)C(F)(F)F)cc1 [T0901317] (first compound 4 µM, partner dose 7 µM)",77.6,103,92.1,105,102,92.6,98.3,88.3,131,126,97.2,98.3,103,83.1,83.3,77.3,97.5,91,106,
"OCc1c[nH]c2ccccc12 [Indole-3-carbinol] + O=c1cc(-c2cccc3c2Sc2ccccc2S3)oc(N2CCOCC2)c1 [KU55933] (first compound 4 µM, partner dose 5 µM)",98.5,96.5,110,89.1,94.2,90.4,102,95.5,87.5,129,76.3,79.8,103,71.4,80.3,87.6,92.2,101,91.5,
"OCc1c[nH]c2ccccc12 [Indole-3-carbinol] + COc1ccc2c(c1)CCC1C2CCC2(C)C(NCCCCCCN3C(=O)C=CC3=O)CCC12 [U73122] (first compound 4 µM, partner dose 2 µM)",92.5,90,80.8,99.3,63.6,94.7,79.9,61.3,22.5,90.6,87.8,86.4,80.3,55.2,84.2,59.4,61.5,80.3,79.6,
"Clc1ccc(Nc2nnc(Cc3ccncc3)c3ccccc23)cc1 [vatalanib] + O=S(=O)(c1ccccc1)N(CC(F)(F)F)c1ccc(C(O)(C(F)(F)F)C(F)(F)F)cc1 [T0901317] (first compound 10 µM, partner dose 7 µM)",54,66.7,73.4,86.5,89.2,63,74.9,52.8,88.6,76.6,54.8,70.7,83,66.6,74,90,78.3,85.5,55.7,
"Clc1ccc(Nc2nnc(Cc3ccncc3)c3ccccc23)cc1 [vatalanib] + O=C(Nc1ccccc1)c1cc([N+](=O)[O-])ccc1Cl [GW9662] (first compound 10 µM, partner dose 10 µM)",49.8,67.3,67.7,58.9,45.9,54.4,50.9,35.6,63.3,55.8,60.5,65.8,61.8,60.3,60.5,59,63.7,70.5,70.7,
"C#Cc1cccc(Nc2ncnc3cc(OCCOC)c(OCCOC)cc23)c1 [erlotinib] + OCCn1cc(-c2cnc3nnn(Cc4ccc5ncccc5c4)c3n2)cn1 [PF04217903] (first compound 4 µM, partner dose 5 µM)",87.5,66,101,,79.2,79,,66.8,64.7,83.9,60.9,75.2,78.9,62.1,89.4,61.9,82.4,85.3,64.4,50.3
"Clc1ccc(Nc2nnc(Cc3ccncc3)c3ccccc23)cc1 [vatalanib] + Oc1cc(-c2nc(-c3ccccc3)[nH]c2-c2ccncc2)ccc1Cl [L779450] (first compound 10 µM, partner dose 1 µM)",44.4,72.5,76.2,82.3,77.2,59.7,72,48,64.5,64.9,44.8,23.7,74.9,49.6,90,51.1,52.9,64.3,44.5,
"Clc1ccc(Nc2nnc(Cc3ccncc3)c3ccccc23)cc1 [vatalanib] + c1cc(-c2cnn3cc(-c4ccc(OCCN5CCCCC5)cc4)cnc23)ccn1 [Dorsomorphin] (first compound 10 µM, partner dose 2 µM)",35.8,62.1,73.9,52.8,76,67.2,10.7,51.1,44,73,26,66,78.1,56.7,77.8,65.2,54,69.1,70.2,
"OCc1c[nH]c2ccccc12 [Indole-3-carbinol] + Oc1cc(-c2nc(-c3ccccc3)[nH]c2-c2ccncc2)ccc1Cl [L779450] (first compound 4 µM, partner dose 1 µM)",78.5,86.8,84.5,87.7,109,91.6,109,79.5,109,72.2,49.9,31.9,86.3,44.1,91.8,57.1,45.8,73.8,50.7,
"OCc1c[nH]c2ccccc12 [Indole-3-carbinol] + COc1ccc(-c2ccc3c(N4CCOCC4)nc(N4C[C@@H](C)O[C@@H](C)C4)nc3n2)cc1CO [KU0063794] (first compound 4 µM, partner dose 0.1 µM)",92.9,70.5,85.1,100,103,78.2,73.4,87.3,89.5,86.6,82,83.5,87.4,58.7,94.1,70.7,84.6,104,91.8,
